Variants at the floor of the assay are shown more often than the library holds them.
B1: tRNA (parent)
chain: CUCUCGGUAGCCAAGUUGGUUUAAGGCGCAAGACUUUAAUUUAUCACUACGAAAUCUUGAGAUCGGGCGUUCGACUCGCCCCCGGGAGAUUUUUUCCUCGAGCAA

Variants of: B1
Assay: nonsense suppression (GFP-seq) (ratio to wild type); higher = more function; SUP4oc tRNA, yeast GFP reporter sort-seq
Method in brief: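 Raffinose/galactose medium with 80 mg/L adenine was used to grow yeast carrying genome-integrated tRNA variants (~3% random-mutation library), RFP, and a galactose-driven GFP ochre reporter. Cells went into GFP/RFP bins, which were Illumina-sequenced, and variants with ≥100 reads and ≥30 cells were scored. Nonsense suppression (GFPSEQ) is the per-bin median GFP/RFP weighted by estimated cell share and expressed relative to the unmutated parent tRNA.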

Nonsense suppression, ≤ 0.026:
CUCUCGGUAGCGAAGUGGGUUUAAGGCGCAAGACUUUAAUUUAUCACUACGAAAUCUUGAGAUCGGGCGUUCGACUCGCCCCAGGGUGAUUUUUUCCUCGAGCAA
CUCUCGGUAGCGAAGUGGGUUUAAGGCGCAAGACUUUAAUUUAUCACUACGAAAUCUUGAGAUCGGGCGAUCGACUCGCCCCCGGGAGAUUUUUUCCUCGAGCAA
CUCUCGGUAGCGAAGUUGGAUUAAGGCGCAAGACUUUAAUUUAUCACUACGAAUUCUUGAGCUCGGGCGUUCGACUCGCCCCCGGGAGAUUUUUUCCUCGAGCAA
CUCUCGGUAGCGAAGUUGGAUUAAGGCGCAAGACUUUAAUUUAUCACUACGAAAUCUUGAGAUCGGCCGUUCGCCUCGCCCCCGGGAGAUUUUUUCCUCGAGCAA
CUCUCGGUAGCGAAGUUGGCUUAAGGGGCAAGACUUUAAUUUAUCACUACGAAAUCUGAAGAUCGGGCGUUCGACUCGCCCCCGGGAGAUUUUUUCCUCGAGCAA
CUCUCGGUAGCGAAGUUGGGUUAAGGCGCAAGACUUUAAUUUAUCACUACGAAAUCUUGAGAUCGGGCGUUCGACUCGCCCCCGGGAGAUUUUUUCCUCGAGCAA
CUCUCGGUAGCGAAGUUGGUUCAAGGCGCAAGACGUUAAUUUAUCACUACGAAAUCUUGAGAUCGGGCGUUCGACUCGCCCCCGGGAGAUUUUUUCCUCGAGCAA
CUCUCGGUAGCGAAGUUGGUUUAAGGCGCAAGACGUUAAUUUAUCACUACGAAAUCUUGAGAUCGGGCGUUCGACCCGCCCCCGGGAGAUUUUUUCCUCGAGCAA
CUCUCGGUAGCGAAGUUGGUUUAAGGCGCAAGACUUUAAUUUAUCACUACGAAAAAUUGAGAUCGGGCGUUCGACUCGCCCCCGGGAGAUUUUUUCCUCGAGCAA
CUCUCGGUAGCGAAGUUGGUUUAAGGCGCAAGACUUUAAUUUAUCACUACGAAACCUUGAGAUCGGGCGUUCGACUCGCCCCCGGGAGAUUUUUUCCUCGAGCAA
CUCUCGGUAGCGAAGUUGGUUUAAGGCGCAAGACUUUAAUUUAUCACUACGAAACCUUUAGAUCGGGCGUUCGACUCGCCCCCGGGAGAUUUUUUCCUCGAGCAA
CUCUCGGUAGCGAAGUUGGUUUAAGGCGCAAGACUUUAAUUUAUCACUACGAAAUCGUGAGAUCGGGCGUUCGACUCGCCCCCGGAAGAUUUUUUCCUCGAGCAA
CUCUCGGUAGCUCAGUUGGCUUAAGGCGCAAGACUUUAAUUUAUCACUACGAAAUCUUGCGAUCGGGCGUUCGACUCGCCCCCGAGAGAUUUUUUCCUCGAGCAA
CUCUCGGUAGCUUAGUUGGUUUAAGGCGCAAGACUUUAAUUUAUCACUACGAAAUCUUGAGAUUGGUCGUUCGACUCACCCCCUGGAGAUUUUUUCCUCGAGCAA
CUCUCGGUAGCUUAGUUGGUUUAAGGCGCAAGACUUUAAUUUAUCACUACGAAAUCUUGAGAUCGGGCGUUCGACUCGCUCCUGGGAGAUUUUUUCCUCGAGCAA
CUCUCGGUAGCUACGUUGGUUUAAGGCGCACGACUUUAAUUUAUCACUACGAAAUCUUGAGAUCGGGCGUUCGACUCGCCCCCGGGAGAUUUUUUCCUCGAGCAA
CUCUCGGUAGCUACGUUGGUUUAAGGCGCACUACUUUAAUUUAUCACUACGAAAUCUUGAGAUCGGGCGUUCGACUCGCCCCCGGGAGAUUUUUUCCUCGAGCAA
CUCUCGGUAGCUAGGUUGGUUUCAGGCGCAAGACUUUAAUUUAUCACUACGAAAUCUUGAGAUCGGGCGUUUGACACGCCCCCGGGAGAUUUUUUCCUCGAGCAA
CUCUCGGUAGCUAGGUUGGUUUAAGGCGCAAGGCUUUAAUUUAUCACUACGAAAUCCUGAGAUCGGGCGUUCGACUCGCCCCCGGGAGAUUUUUUCCUCGAGCAA
CUCUCGGUAGCUAUGUUGGUUUAAGGCGCAAGACUUUAAUUUAUCACUACGAAAUCUUGAGCUCGGGCGUUCGACUCGCCCCCGGGAGAUUUUUUCCUCGAGCAA
CUCUCGGUAGCUAUGUUGGUUUAAGGCGCAAGACUUUAAUUUAUCACUACGAAAUCUUGAGAUCGGGCGUUCCACUCGCCCCCGGGAGAUUUUUUCCUCGAGCAA
CUCUCGGUAGCUAUGUUGGUUAAAGGCGCAAGACUUUAAUUUAUCACUACGAAAUCUUUAGAUCGGGCGUUCGACUCGCCCCCGGGAGAUUUUUUCCUCGAGCAA
CUCUCGGUAGCUAUGUUGGUUUAAGGCGCAAGACUUUAAUUUAUCACUACGAAAUCUUGAGACCGGGCGUUCGACUCGCCCCCGGGAGAUUUUUUCCUCGAGCAA
CUCUCGGUAGCUAAGUUGGUUUCAGCCGCAAGACUUUAAUUUAUCACUACGAAAUCUUGAGAUCGGGCGUUCGACUCGCCCGCGGGAGAUUUUUUCCUCGAGCAA
CUCUCGGUAGCUAAGUUGGUUUUAGGCGCAAGACUUUAAUUUAUCACUACGAAAUAUUGAGAUCGGGCGUUCGACUCGCCCCCCGGAGAUUUUUUCCUCGAGCAA

Nonsense suppression, 0.0776:
CUCUCGGUAGCUAAGUUGGUUUGAGGCGCAAGACUUUAAUUUAUCACUACGAAAUCUUGAGAUCGGGCGUUCGACUCGCCCCCGGGAGAUUUUUUCCUCGAGCAA

Nonsense suppression, 0.153:
CUCUCGGUAGCUGAGUUGGUUUAAGGCGCAAGACUUUAAUUUAUCACUACGAAAUCUUGAGAUCGGGCGUUCGACUCGCCCCCGGGAGAUUUUUUCCUCGAGCAA

— the RNAGym collection of RNA variant scans (doi:10.1101/gad.245936.114)
